Assay results as given in PubChem BioAssay AID1159614 (National Center for Advancing Translational Sciences (NCATS), 2016).
The campaign covered roughly 45,000 compounds. About 65 (0.1%) were called active. Calls come from the whole dose curve; as a rule, active = well fitted activation curve with a large enough effect; inconclusive = small, poorly fitted or top-dose-only effect; inactive = no such curve, though single readings can be large or run the other way. The list shows a part of the results.

target: Galactocerebrosidase (Homo sapiens) (UniProt P54803); assay: A Novel Cell-Based Assay to Identify Small Molecules for B -Galactocerebrosidase; details: 145M-Twi-hGALC-G270D cells (Twitcher mouse brain line with human GALC G270D), HMU-beta-Gal fluorescence, 48 h; series mostly up to 57.5 µM; activation: at the top concentration; note: 0% is about no effect; nearly all actives have a fitted effect of over 65% in size
Sequence of UniProt P54803 (P54803 whole entry, looked up): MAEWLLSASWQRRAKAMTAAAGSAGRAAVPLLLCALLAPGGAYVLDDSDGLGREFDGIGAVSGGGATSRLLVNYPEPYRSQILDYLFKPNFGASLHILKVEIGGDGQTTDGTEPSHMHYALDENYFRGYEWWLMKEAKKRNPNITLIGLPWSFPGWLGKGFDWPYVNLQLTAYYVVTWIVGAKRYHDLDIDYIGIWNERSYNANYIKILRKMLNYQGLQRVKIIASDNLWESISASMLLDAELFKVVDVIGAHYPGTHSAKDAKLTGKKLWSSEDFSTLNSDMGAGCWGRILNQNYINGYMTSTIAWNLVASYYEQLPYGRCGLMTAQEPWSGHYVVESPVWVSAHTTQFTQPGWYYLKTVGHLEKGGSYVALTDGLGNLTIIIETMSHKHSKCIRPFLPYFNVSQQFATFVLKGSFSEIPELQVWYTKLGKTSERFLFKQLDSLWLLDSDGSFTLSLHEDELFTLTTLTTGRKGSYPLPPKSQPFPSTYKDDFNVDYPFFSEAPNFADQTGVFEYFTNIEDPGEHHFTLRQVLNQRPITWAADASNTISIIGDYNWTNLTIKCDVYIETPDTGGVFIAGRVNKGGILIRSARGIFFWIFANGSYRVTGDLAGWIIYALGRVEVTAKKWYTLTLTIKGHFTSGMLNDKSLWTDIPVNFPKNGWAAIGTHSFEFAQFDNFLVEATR
In short: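 Live 145M-Twi cells (Twitcher mouse brain-derived, GALC-null) stably expressing human GALC-G270D, with a wild-type GALC line, were compound-treated. Residual GALC activity was then read as fluorescence from 0.1 mM final HMU-β-gal at pH 5.2; higher signal means activation.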

activation, inactive:
Cn1nc(C(=O)NCc2cccc(Cl)c2)c2c1-c1ccccc1S(=O)(=O)C2 -12.7%
Cc1c(Cl)cccc1NC(=O)CCS(=O)(=O)c1ccc2c(c1)oc(=O)n2C -11.1%
COc1cccc(CNC(=O)CCn2nc(C)c3c(C)n(-c4ccccc4)nc3c2=O)c1 -11.3%
CN(c1ccccc1)S(=O)(=O)c1nnc(NC(=O)C2CCCCC2)s1 -2.44%
Cc1ccc(NC(=O)C(=O)NCCc2sc(-c3ccc(Cl)cc3)nc2C)cc1C -4.17%
COc1cccc(Cn2c(CNC(=O)CCc3ccccc3)nc3cccnc32)c1 6.31%
Cc1ccc(S(=O)(=O)NCCc2csc(-c3ccc(Cl)cc3)n2)cc1 -14.2%
COc1cccc(C(=O)N(Cc2cccnc2)c2nc3c(OC)ccc(C)c3s2)c1OC -15.5%
COc1ccc(NCc2cc3cc4c(cc3n(CC(=O)Nc3ccc(F)cc3)c2=O)OCCO4)cc1 -6.54%
CCOC(=O)c1c(C)c(C(=O)NCc2ccc(OC)cc2)c(C)n1CC -10.3%
COC(=O)C(C)Sc1nc2c(cnn2-c2ccc(F)cc2)c(=O)[nH]1 (configuration not stated) -22.5%
CCOc1cc(C2CC(=O)Nc3cc4c(cc32)OCCO4)ccc1O (configuration not stated) -20.9%
COc1ccc2c(c1)-c1nc(NC(=O)c3ccc(C)cc3)sc1CC2 -9.83%
CCOc1ccc(-c2cc(NC(=O)c3ccc(C)cc3)c(C(=O)OC)s2)cc1 -16.6%
Cc1cc(C)cc(-n2c(SCC(=O)NCC3CCCO3)nc3c([nH]c4ccccc43)c2=O)c1 (configuration not stated) -21.9%
COc1ccc(-c2noc(-c3ccc(NCCc4ccccc4)c([N+](=O)[O-])c3)n2)cc1OC -11.7%
CCCC(=O)C1=C(c2ccc(C)c(C)c2)N(C(=O)CCC)n2c(CC)nnc2S1 -6.48%
Cn1cnc2c1c(=O)[nH]c(=O)n2C -0.667%
O=C(Cn1ncc2c3ccccc3n(Cc3ccccc3)c2c1=O)Nc1ccccc1C(F)(F)F -0.104%
COc1ccc(OC)c(CNC(=O)CCCn2nc(C)c3c(C)n(-c4ccc(C)cc4)nc3c2=O)c1 -0.42%
CC(C)c1ccc(NS(=O)(=O)c2ccc3[nH]cc(C(=O)N4CCCC4)c(=O)c3c2)cc1 3.81%
CCn1ccc2cc(S(=O)(=O)N3CCCN(C(=O)Nc4cc(Cl)ccc4C)CC3)ccc21 -26.9%
CCOc1ccc(NC(=O)Nc2ccc3snnc3c2)cc1 -37.3%
COc1cccc(CNC(=O)Cc2c(C)c3c(cc(C)c4c(C)coc43)oc2=O)c1 -1.25%
CC1=NN(c2ccccc2)C(=O)C1 -12.5%
Cc1nn(-c2nc(-c3ccc(F)cc3)cc(C(F)(F)F)n2)c(C)c1Cl -25.2%
Cn1ccc2c(OCC(=O)NCc3ccccc3Cl)cccc2c1=O -9.52%
